# Data from the supplement of paper PMC3334620.
# Whole data set: some 33,000 sequences, median “E-score (-0.5 to 0.5)” near -0.035, cut for the highest 2% near 0.34. The list shows a part of the results.
# Biological target: T1, Mot3 (UniProt P54785)
# T1 sequence: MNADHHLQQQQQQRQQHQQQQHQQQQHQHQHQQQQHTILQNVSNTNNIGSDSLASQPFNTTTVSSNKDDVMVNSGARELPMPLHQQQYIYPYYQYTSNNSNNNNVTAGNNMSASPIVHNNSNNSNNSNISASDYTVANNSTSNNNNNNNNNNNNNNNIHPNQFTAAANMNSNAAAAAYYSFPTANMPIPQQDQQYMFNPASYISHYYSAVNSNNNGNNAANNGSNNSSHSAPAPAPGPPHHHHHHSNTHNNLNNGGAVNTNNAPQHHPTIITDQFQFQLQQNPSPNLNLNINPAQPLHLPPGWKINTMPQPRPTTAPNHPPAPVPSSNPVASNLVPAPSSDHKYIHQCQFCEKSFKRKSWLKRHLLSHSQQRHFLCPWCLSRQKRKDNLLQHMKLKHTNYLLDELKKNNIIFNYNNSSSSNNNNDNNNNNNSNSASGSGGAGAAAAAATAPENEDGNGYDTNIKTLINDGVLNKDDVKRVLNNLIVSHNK
# Assay: PBM E-score (8-mer binding enrichment) (E-score (-0.5 to 0.5)); higher = stronger / more preferred TF binding; most listed sequences are background and not binding sites
# Conditions: protein concentration: 200 nM; construct: GST-full length
# Summary of the method: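 The E-score, a modified Wilcoxon-Mann-Whitney statistic, was computed by the Universal PBM Analysis Suite for every ungapped eight-base word pooled with its reverse complement. Scans behind it were normalised with masliner after bound GST-tagged yeast transcription factors were detected with fluorescent anti-GST. The proteins, at about 100-200 nM, had been applied to universal all-10-mer Agilent arrays made double-stranded by primer extension.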
row,Sequence,PBM E-score
1,CTTACGTA,0.211
2,AACGAAAA,0.0146
3,AACGAGAA,0.137
4,ATCGTAGA,0.0844
5,CTAACTCC,-0.141
6,TTATCGAA,-0.0233
7,TAGTCGGA,-0.134
8,GGCGTATA,0.0528
9,ACCGAACC,-0.266
10,ATGCTAGA,0.132
11,AAGTTATA,0.183
12,GCTAGCGA,-0.0626
13,ACGGAGAC,-0.0528
14,GATTAACA,0.338
15,ACAAAGCG,0.161
16,CGGCTCGA,-0.227
17,ATGGATGG,-0.226
18,CATCCTGG,-0.186
19,TCTAGTAA,0.163
20,ATTACCGG,-0.202
21,CGTAGGAA,0.351
22,ACAGCCGT,-0.24
23,ATTACTAC,0.171
24,TCGCGCCA,-0.114
25,AGACCTGG,-0.302

row,Sequence,PBM E-score
1,TCATTAGA,0.0474
2,AGTTTCGA,-0.164
3,CCATTGGC,-0.182
4,ATTAGCAG,-0.0234
5,CTTCGTGC,0.0535
6,AGGGCGTC,-0.112
7,CAACGGAC,-0.146
8,ATGGGCCC,-0.345
9,AAAGAATA,0.134
10,GTCCTCTA,-0.132
11,AGACTTCA,-0.0925
12,AATAAGAA,-0.0269
13,TCCCGACA,0.0266
14,ACGCCAGC,-0.221
15,TAGCCTCA,-0.188
16,CTCAATCC,0.0765
17,GGCGACTA,-0.176
18,CGCTTGCA,-0.178
19,CGCCGCAG,-0.206
20,CTCCCCTA,-0.29
21,ATTTTACA,0.336
22,CTTCAGCC,-0.21
23,ACGTAGCG,0.0835
24,ACGACAAA,0.0916
25,AAAACACC,0.0515

row,Sequence,PBM E-score
1,AGTCGATC,-0.35
2,TCCTAACA,0.214
3,AGCAGGCA,0.483
4,TACCACAA,0.23
5,CGATTCAG,-0.299
6,GCTGTCTA,-0.135
7,CCATTAGC,-0.205
8,AATTGGTA,0.113
9,CACTGAAG,0.0637
10,CGGGCCTC,-0.238
11,CGAGTTAA,0.143
12,CAAGGTCG,-0.0786
13,AAGAGTCT,-0.202
14,TCAATCAA,0.0592
15,AGGTTAGA,-0.215
16,AGTTCACA,0.132
17,CTTTTCCA,-0.109
18,AGTACTCG,0.0379
19,ACTCCGCT,0.0442
20,CGCCAGGC,0.0445
21,ATCCCCCC,-0.416
22,ACCGCAAC,0.0744
23,CGTATATC,0.0514
24,CTCAGGCC,-0.129
25,AAGTGAAG,-0.0194

row,Sequence,PBM E-score
1,AAACGGCT,-0.153
2,ACTATCAT,-0.00234
3,ATGGAGTG,-0.165
4,TAGGGGAA,-0.127
5,ACAGTCCC,-0.246
6,GCCATTAA,0.00098
7,CCGAATCA,-0.15
8,GCATGCAC,-0.0321
9,GGGTCGTA,-0.0745
10,GACACGAA,0.145
11,GAATCAAC,0.112
12,AGCTCTAG,-0.131
13,CATGGGTC,-0.173
14,TACGTGCA,0.093
15,CACATCAA,0.105
16,GACTCCCA,-0.163
17,GCGTTATA,0.177
18,AGAAGGAT,0.0925
19,CCTTGAAG,0.118
20,ACCCCATA,-0.0949
21,GAGATCTC,-0.359
22,GGCATTAC,0.305
23,TAGAGACA,-0.187
24,AGCAAATG,0.0139
25,ATCCTGTA,0.225

row,Sequence,PBM E-score
1,CGAATCTC,-0.0738
2,AGCCAAAC,-0.111
3,ATACTAAA,0.0222
4,ATCGTGAG,-0.15
5,CGCGTCAA,0.183
6,GGCTTTAA,-0.0639
7,CAATCGGG,-0.0322
8,CTGCGTCC,-0.17
9,ATATTTAC,0.285
10,GAGTCATA,-0.148
11,GGAACGGA,0.0873
12,AAAAGTGA,0.116
13,ATGGTGGC,-0.121
14,GGAATATA,0.0523
15,CTACAGAG,0.0842
16,CGCCTACA,0.224
17,AGTAACAA,0.178
18,GCACGCAA,0.0235
19,CGCCTAGC,-0.104
20,AGATGAGC,-0.118
21,TATGTAGA,0.333
22,CACGAGGA,0.00456
23,CCGAGCTA,-0.0595
24,CATGCAAG,0.0622
25,CGATGGAG,-0.172

row,Sequence,PBM E-score
1,CGTAATTA,0.322
2,CAGATCAC,-0.196
3,CGTACGAC,-0.0193
4,GGAGTCGA,-0.15
5,ATGGACGG,-0.0861
6,ACTGGGAT,0.0268
7,AGGCAAGG,0.483
8,CGGCAGGC,0.226
9,ACATATAC,0.258
10,GGTAGTTA,0.124
11,ACGCTGGG,-0.28
12,CGGCGGGC,-0.348
13,GTGATTCA,0.0658
14,ACGACGCC,-0.0205
15,ATGCGAGA,-0.149
16,CAAATACC,0.0599
17,CCGCTGCC,-0.0603
18,GGCTGCGA,-0.3
19,AGCTAAAG,-0.0941
20,CAGTCCGC,-0.175
21,CACCGTGG,-0.0929
22,ACTACGTG,0.0857
23,AAACCTTA,0.119
24,AAACTATA,0.0432
25,CATCAAAG,0.11

row,Sequence,PBM E-score
1,GGCTGGGA,-0.148
2,CATCCCGA,-0.123
3,GCCTCTCA,-0.12
4,GTATAAAA,0.189
5,GTAACTTA,0.202
6,GGTTTCAC,0.0117
7,TGTTAGAA,0.243
8,ACACCTAT,-0.00193
9,AGTTCTAT,-0.0879
10,ATGCGGAG,-0.131
11,ACAACATG,0.359
12,ACGAGTGA,0.113
13,CTGTTGGC,-0.17
14,TCGTTAGA,-0.236
15,CCGTGAGG,-0.203
16,CGATACTC,-0.259
17,AACGGCCG,-0.154
18,AGACGTAC,0.0104
19,AACCTCTC,-0.165
20,CCCAGGCA,0.461
21,ATCCGCCC,-0.357
22,GACACACA,0.173
